Experimental data reported in PMC4336329 (PLoS ONE, 2015).
The campaign covered roughly 310,000 compounds. About 14,000 (4.5%) showed an effect of 50% or more. The effect is printed as a negative number. This is one part of the list.

target: human ether-à-go-go-related gene (hERG) potassium channel (human, UniProt Q12809); test: primary screen, population patch clamp on CHO cells stably expressing hERG
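Further: peak tail current of the secondary pulse compared with the same well before compound.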

Chain of human ether-à-go-go-related gene (hERG) potassium channel (Q12809 whole entry, looked up): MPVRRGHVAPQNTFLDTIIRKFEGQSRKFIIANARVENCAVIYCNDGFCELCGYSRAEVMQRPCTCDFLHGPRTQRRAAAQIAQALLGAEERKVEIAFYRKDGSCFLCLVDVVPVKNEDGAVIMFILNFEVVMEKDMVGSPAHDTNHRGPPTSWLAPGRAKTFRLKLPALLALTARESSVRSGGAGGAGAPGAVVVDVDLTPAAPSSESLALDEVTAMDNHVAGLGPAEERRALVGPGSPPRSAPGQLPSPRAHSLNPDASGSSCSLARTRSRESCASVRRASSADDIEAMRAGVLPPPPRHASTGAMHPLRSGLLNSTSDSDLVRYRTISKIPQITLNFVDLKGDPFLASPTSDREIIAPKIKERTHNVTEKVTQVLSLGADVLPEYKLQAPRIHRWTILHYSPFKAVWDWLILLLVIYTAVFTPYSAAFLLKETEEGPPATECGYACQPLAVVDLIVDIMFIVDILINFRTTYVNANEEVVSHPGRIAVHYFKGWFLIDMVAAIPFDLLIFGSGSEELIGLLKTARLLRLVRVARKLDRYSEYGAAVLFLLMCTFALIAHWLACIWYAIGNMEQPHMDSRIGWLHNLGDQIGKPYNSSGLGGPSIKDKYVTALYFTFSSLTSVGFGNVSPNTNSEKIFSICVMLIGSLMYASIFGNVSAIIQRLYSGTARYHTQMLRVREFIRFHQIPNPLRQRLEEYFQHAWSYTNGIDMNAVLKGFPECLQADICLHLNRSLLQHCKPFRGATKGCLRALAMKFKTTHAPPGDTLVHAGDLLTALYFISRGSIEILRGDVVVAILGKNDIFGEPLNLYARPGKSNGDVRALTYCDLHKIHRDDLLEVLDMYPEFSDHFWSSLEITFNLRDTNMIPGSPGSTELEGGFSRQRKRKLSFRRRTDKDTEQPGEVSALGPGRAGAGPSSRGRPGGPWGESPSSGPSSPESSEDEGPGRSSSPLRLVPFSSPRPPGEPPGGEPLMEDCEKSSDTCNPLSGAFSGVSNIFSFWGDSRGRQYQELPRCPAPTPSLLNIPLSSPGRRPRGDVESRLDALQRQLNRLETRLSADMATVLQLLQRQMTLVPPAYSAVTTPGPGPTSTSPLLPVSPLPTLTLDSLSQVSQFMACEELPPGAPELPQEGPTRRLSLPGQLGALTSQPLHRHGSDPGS

First: N#C/C(=C\c1ccccc1)c1ccccn1
Second: COc1cc(/C=C(\C#N)c2ccccn2)ccc1OCc1ccc(Cl)cc1
The “hERG current change (%, negative = inhibition) at 10uM” value of the first is higher: 30% for the first, 9.63% for the second.

Going from `Cc1cc(C)c(NC(=O)CNC(=O)c2ccc3c(=O)n4c(nc3c2)CCC4)c(C)c1` to `Cc1ccc(NCC(=O)NNC2=NCCC2)c(C)c1`, the “hERG current change (%, negative = inhibition) at 10uM” value rises from 6.54% to 31%.

First: O=C(CSc1nc2ccccc2[nH]1)NCCN1CCCCC1
Second: CCC(Oc1ccccc1)C(=O)NCCCN1CCOCC1 (stereo not shown)
The “hERG current change (%, negative = inhibition) at 10uM” value of the first is lower: -0.0835% for the first, 1.93% for the second.

First: COc1ccc2[nH]c(C(=O)NCc3ccccc3)cc2c1
Second: O=c1nc(-c2ccccc2)c2cc(Cl)ccc2[nH]1
The “hERG current change (%, negative = inhibition) at 10uM” value of the first is higher: -0.642% for the first, -16.8% for the second.

First: CCOC(=O)Cc1csc(NC(=O)CN2C(=O)c3ccccc3S2(=O)=O)n1
Second: CC(=O)Nc1cccc(NC(=O)CCN2C(=O)c3ccccc3S2(=O)=O)c1
The “hERG current change (%, negative = inhibition) at 10uM” value of the first is lower: -5.8% for the first, -4.59% for the second.

First: CC(=O)N1CCCc2cc(S(=O)(=O)N3CCCC(C(=O)NCc4ccc(C)cc4)C3)ccc21 (stereo not shown)
Second: COc1ccccc1CNC(=O)C1CCN(S(=O)(=O)c2ccc3c(c2)OCCO3)CC1
The “hERG current change (%, negative = inhibition) at 10uM” value of the first is lower: -11.7% for the first, -8.21% for the second.

First: C[C@H](NC(=O)c1ccccc1Cl)C(=O)NCCc1ccc(S(N)(=O)=O)cc1
Second: Cc1ccc(C(=O)OC(C)C(=O)NC(C)CCc2ccccc2)o1 (stereo not shown)
The “hERG current change (%, negative = inhibition) at 10uM” value of the first is lower: -4.02% for the first, 0.142% for the second.

Going from `O=C(c1ccco1)N1CCN(S(=O)(=O)c2cc(Cl)ccc2Cl)CC1` to `Cc1ccc(S(=O)(=O)N2CCN(C(=O)c3ccco3)CC2)c(C)c1`, the “hERG current change (%, negative = inhibition) at 10uM” value rises from -21.5% to -7.22%.

First: CC1=C(C(=O)Nc2ccccn2)C(c2ccc(Cl)cc2)NC(=S)N1 (stereo not shown)
Second: COc1ccccc1/C=C/C(=O)c1ccc(Cl)cc1
The “hERG current change (%, negative = inhibition) at 10uM” value of the first is higher: -1.8% for the first, -3.25% for the second.

Compared with `CC(OC(=O)CCN=C1NS(=O)(=O)c2ccccc21)C(=O)Nc1ccc(F)cc1Cl` (stereo not shown), `COC(=O)c1cccc(C(=O)Nc2ccc(F)cc2)n1` is lower in “hERG current change (%, negative = inhibition) at 10uM” value: -3.04% for the first, -8.51% for the second.

Compared with `O=C(CN1CCN(C(=O)c2ccco2)CC1)Nc1cc(C(F)(F)F)ccc1Cl`, `CCOC(=O)N1CCN(C(=O)c2cnn3c(C(F)(F)F)cc(-c4cccs4)nc23)CC1` is higher in “hERG current change (%, negative = inhibition) at 10uM” value: -63.6% for the first, -7.69% for the second.

Going from `Cc1ccc(NC(=O)CN(C)C(=O)c2nn(C)c(=O)c3ccccc23)cc1` to `CC(=O)Nc1ccc(NC(=O)CSc2nnnn2-c2ccccc2F)cc1`, the “hERG current change (%, negative = inhibition) at 10uM” value rises from -35.7% to 6.4%.

Compared with `CCc1nnc(NC(=O)COC(=O)CN2C(=O)c3ccccc3C2=O)s1`, `Nc1cc(=O)[nH]c(SCC(=O)Nc2nnc(-c3ccccc3)s2)n1` is higher in “hERG current change (%, negative = inhibition) at 10uM” value: 1.09% for the first, 21.6% for the second.

Compared with `CC(C)n1nnnc1SCC(=O)N1CCOCC1`, `CCc1ccc(CC(=S)N2CCOCC2)cc1` is lower in “hERG current change (%, negative = inhibition) at 10uM” value: 20.6% for the first, 16.7% for the second.

First: Nc1nccnc1C(=O)OCc1nc2sc3c(c2c(=O)[nH]1)CCCC3
Second: CCOC(=O)c1c(NC(=O)CSc2ncnc3[nH]ncc23)sc2c1CCC(C)C2 (stereo not shown)
The “hERG current change (%, negative = inhibition) at 10uM” value of the first is lower: -22.8% for the first, 8.93% for the second.

Going from `COC(=O)CCCC1=CC2=CC(=O)C(C)(OC(=O)c3cccs3)C(=O)C2=CN1CCc1c[nH]c2ccccc12` (stereo not shown) to `C/C(=N/NC(=O)CN1CCN(Cc2ccccc2Cl)CC1)c1cccs1`, the “hERG current change (%, negative = inhibition) at 10uM” value falls from 15% to -17.8%.

Going from `Cc1cccc(NC(=O)CCn2nc(C)cc2C)c1` to `CCN(C(=O)CSc1nnc2nc(C)cc(C)n12)c1ccccc1`, the “hERG current change (%, negative = inhibition) at 10uM” value falls from 9.02% to 6.53%.

First: CCOC(=O)C1CCCN(S(=O)(=O)c2c(C)c(C)cc(C)c2C)C1 (stereo not shown)
Second: Cc1ccc2sc(N(CCCN(C)C)C(=O)c3ccc(S(=O)(=O)N4CCOCC4)cc3)nc2c1C.Cl
The “hERG current change (%, negative = inhibition) at 10uM” value of the first is higher: -13.9% for the first, -35.9% for the second.

Compared with `CCc1ccc(N2CC(C(=O)NC3CCCCC3C)CC2=O)cc1` (stereo not shown), `CCc1ccc(N2CC(C(=O)OCC(=O)c3c(N)n(CC(C)C)c(=O)n(C)c3=O)CC2=O)cc1` (stereo not shown) is lower in “hERG current change (%, negative = inhibition) at 10uM” value: 15.6% for the first, -7.72% for the second.

Going from `CCOC(=O)C(C)Sc1ncc(OC)c(=O)[nH]1` (stereo not shown) to `CCOC(=O)c1cnn(-c2nc3c(C)cccc3s2)c1C`, the “hERG current change (%, negative = inhibition) at 10uM” value falls from 16.6% to 11.9%.

Compared with `Cc1ccccc1Nc1ncc(C#N)c(N)n1`, `N#Cc1c(N)nc2c(c1-c1ccccc1)CCC2` is lower in “hERG current change (%, negative = inhibition) at 10uM” value: 17.1% for the first, 1.35% for the second.

Going from `COc1ccc(NC(=S)N2CCC(NC(=O)c3ccc(OC)cc3)CC2)cc1` to `COc1ccc(C(=O)c2ccc(N3CCOCC3)c([N+](=O)[O-])c2)cc1`, the “hERG current change (%, negative = inhibition) at 10uM” value falls from 9.06% to -43.7%.

First: Cn1cccc1-c1nc2ccccc2n1Cc1ccccc1
Second: N#CCn1c(Cc2ccccc2)nc2ccccc2c1=O
The “hERG current change (%, negative = inhibition) at 10uM” value of the first is lower: -29.1% for the first, 7.34% for the second.

Going from `COc1cc(SC)ccc1C(=O)NCC1CCCO1` (stereo not shown) to `COc1ccc(NC(C)=O)cc1CNC(=O)CN1CCOCC1`, the “hERG current change (%, negative = inhibition) at 10uM” value rises from -0.204% to 19.1%.

Going from `COc1cccc(C(CC(=O)O)NS(=O)(=O)c2ccc3c(c2)N(C(C)=O)CC(C)O3)c1` (stereo not shown) to `COc1cccc(S(=O)(=O)Nc2cccc(C(=O)N3CCOCC3)c2)c1`, the “hERG current change (%, negative = inhibition) at 10uM” value falls from 24.4% to 12.3%.

Going from `COC(=O)c1c(-c2cccc(C)c2)csc1NC(=O)C1CCCO1` (stereo not shown) to `COc1cccc(NC(=O)N2CCN(c3nc(-c4cccc(OC)c4)cs3)CC2)c1`, the “hERG current change (%, negative = inhibition) at 10uM” value rises from -5.91% to 9.95%.

Going from `CCOc1ccccc1C(=O)NCC(=O)Nc1ncccc1C` to `O=C(CNC(=O)c1ccc(F)cc1)c1ccccc1`, the “hERG current change (%, negative = inhibition) at 10uM” value falls from 14% to 10.2%.

Compared with `O=C(C[n+]1ccccc1)NNc1ccccc1.[Cl-]`, `CCOP(=S)(NN(Cc1ccccc1)C(=O)c1ccccc1)OCC` is lower in “hERG current change (%, negative = inhibition) at 10uM” value: 4.77% for the first, 3.16% for the second.

First: Cc1c(N=Cc2ccco2)c(=O)n(-c2ccccc2)n1C
Second: c1coc(-c2nc3ccccc3nc2-c2ccco2)c1
The “hERG current change (%, negative = inhibition) at 10uM” value of the first is higher: -1.18% for the first, -4.79% for the second.

Going from `COc1ccc(/C=C/C(=O)N2c3ccccc3Sc3ccc(C(F)(F)F)cc32)cc1` to `COc1ccc(-c2c[n+]3c(n2-c2ccccc2)SCC3)cc1.[Br-]`, the “hERG current change (%, negative = inhibition) at 10uM” value falls from 6.89% to -45.7%.

Compared with `CCOC(=O)C1=C(C)NC(C)=C(C(=O)OCC)C1c1ccc(O)cc1`, `CCCCn1c(N)c(N(CC)C(=O)CSc2nnnn2-c2cc(C)ccc2C)c(=O)[nH]c1=O` is lower in “hERG current change (%, negative = inhibition) at 10uM” value: 7.94% for the first, -3.92% for the second.

First: C=CCN1C(=O)C2(OCCCO2)c2cccc(C)c21
Second: CCOC(=O)N1CCN(C2OC(=O)c3ccccc32)CC1 (stereo not shown)
The “hERG current change (%, negative = inhibition) at 10uM” value of the first is lower: 4.53% for the first, 8.07% for the second.

Compared with `CCOC(=O)n1c(=O)n(C)c2ccc(Br)cc21`, `CCOC(=O)N1CCN(Cc2cc(=O)oc3cc4c(cc23)CCC4)CC1` is lower in “hERG current change (%, negative = inhibition) at 10uM” value: -7.75% for the first, -26.9% for the second.

Going from `O=C(c1ccc2ccccc2n1)N1CCN(c2ccccc2)CC1` to `O=C(Nc1ccccc1F)c1ccc(CN2CCN(c3ccccc3)CC2)cc1`, the “hERG current change (%, negative = inhibition) at 10uM” value falls from -3.81% to -70.7%.

Going from `c1ccc2nc(N3CCOCC3)cnc2c1` to `CCc1ncc(C(O)c2cccc3ccccc23)n1C` (stereo not shown), the “hERG current change (%, negative = inhibition) at 10uM” value rises from -1.44% to 0.159%.

Compared with `Cc1cc(-c2ccn[nH]2)c(C)s1`, `CCC(Oc1ccccc1)C(=O)Nc1nnc(C)s1` (stereo not shown) is lower in “hERG current change (%, negative = inhibition) at 10uM” value: 5.25% for the first, -3.23% for the second.

Compared with `CC(C)(C)c1cnnn1-c1ccc(/C=N/Nc2ccc([N+](=O)[O-])cc2)cc1`, `CC(=O)Nc1ccc(S(=O)(=O)N2CCN(C(=O)c3ncoc3-c3ccccc3C)CC2)cc1` is higher in “hERG current change (%, negative = inhibition) at 10uM” value: -1.96% for the first, 31.4% for the second.

Compared with `CCOc1ccc(NC(=O)CCNS(=O)(=O)c2cccs2)cc1`, `O=S(=O)(NCc1csc(-c2cccnc2)n1)c1ccc(Br)cc1` is higher in “hERG current change (%, negative = inhibition) at 10uM” value: -8.9% for the first, -1.17% for the second.

First: COc1cc(Br)c(C(C)NC(=O)c2ccc(C)cc2)cc1OC (stereo not shown)
Second: COc1ccc(CN(C)C(=O)c2ccncc2)c(OC)c1
The “hERG current change (%, negative = inhibition) at 10uM” value of the first is lower: -17.1% for the first, -2.49% for the second.

Going from `O=S(=O)(Nc1ccc2c(c1)nc1n2CCN(Cc2ccccc2)C1)c1ccccc1` to `O=C(Cn1c(=O)oc2ccccc21)N1CCN(S(=O)(=O)c2ccccc2)CC1`, the “hERG current change (%, negative = inhibition) at 10uM” value rises from -40.1% to -24.1%.

Going from `C1CCN(c2c3c(nc4nnnn24)CCCC3)CC1` to `Cc1ccc(S(=O)(=O)N(CC(=O)NC2CCCCCC2)c2ccccc2F)cc1`, the “hERG current change (%, negative = inhibition) at 10uM” value rises from -2.33% to 4.92%.

Compared with `O=C(NNC(=O)C1CC=CCC1)c1ccccc1Cl` (stereo not shown), `CN(CC(=O)Nc1ccccc1C(F)(F)F)C(=O)COc1ncnc2ccccc12` is lower in “hERG current change (%, negative = inhibition) at 10uM” value: 16.5% for the first, 1.42% for the second.

Compared with `Cc1c(C(=O)O)sc2nc(C)n(C)c(=O)c12`, `COC(=O)c1cc2sc(Cl)cc2n1CC(=O)Nc1ccc(OC)c(OC)c1OC` is lower in “hERG current change (%, negative = inhibition) at 10uM” value: 3.62% for the first, -68.9% for the second.

First: CCCCn1c(N)c(N(CC)C(=O)c2ccncc2)c(=O)[nH]c1=O
Second: COc1cc(/C=C2\SC(=S)N(NC(=O)c3cccc(O)c3)C2=O)ccc1O
The “hERG current change (%, negative = inhibition) at 10uM” value of the first is lower: 2.8% for the first, 8.96% for the second.

First: COc1ccc(NC(=S)Nc2cccc(C(F)(F)F)c2)c(C)c1
Second: COc1cccc2cc(C(C)N(CCCN3CCOCC3)C(=S)Nc3cccc(C)c3C)oc12 (stereo not shown)
The “hERG current change (%, negative = inhibition) at 10uM” value of the first is higher: 8.41% for the first, 0.505% for the second.

With `CN(C)c1ccc(-c2nnc(-c3cccs3)o2)cc1` the “hERG current change (%, negative = inhibition) at 10uM” value was 11.9%.
